{"source": "paper PMC4336329", "about": "(PLoS ONE, 2015)", "note": "In all, about 310,000 compounds went through this assay and about 14,000 (4.5%) showed an effect of 50% or more. The effect is printed as a negative number. This is one part of the list.", "data": [{"molecular_target": "human ether-à-go-go-related gene (hERG) potassium channel (human, UniProt Q12809)", "sequence (Q12809 whole entry, looked up)": "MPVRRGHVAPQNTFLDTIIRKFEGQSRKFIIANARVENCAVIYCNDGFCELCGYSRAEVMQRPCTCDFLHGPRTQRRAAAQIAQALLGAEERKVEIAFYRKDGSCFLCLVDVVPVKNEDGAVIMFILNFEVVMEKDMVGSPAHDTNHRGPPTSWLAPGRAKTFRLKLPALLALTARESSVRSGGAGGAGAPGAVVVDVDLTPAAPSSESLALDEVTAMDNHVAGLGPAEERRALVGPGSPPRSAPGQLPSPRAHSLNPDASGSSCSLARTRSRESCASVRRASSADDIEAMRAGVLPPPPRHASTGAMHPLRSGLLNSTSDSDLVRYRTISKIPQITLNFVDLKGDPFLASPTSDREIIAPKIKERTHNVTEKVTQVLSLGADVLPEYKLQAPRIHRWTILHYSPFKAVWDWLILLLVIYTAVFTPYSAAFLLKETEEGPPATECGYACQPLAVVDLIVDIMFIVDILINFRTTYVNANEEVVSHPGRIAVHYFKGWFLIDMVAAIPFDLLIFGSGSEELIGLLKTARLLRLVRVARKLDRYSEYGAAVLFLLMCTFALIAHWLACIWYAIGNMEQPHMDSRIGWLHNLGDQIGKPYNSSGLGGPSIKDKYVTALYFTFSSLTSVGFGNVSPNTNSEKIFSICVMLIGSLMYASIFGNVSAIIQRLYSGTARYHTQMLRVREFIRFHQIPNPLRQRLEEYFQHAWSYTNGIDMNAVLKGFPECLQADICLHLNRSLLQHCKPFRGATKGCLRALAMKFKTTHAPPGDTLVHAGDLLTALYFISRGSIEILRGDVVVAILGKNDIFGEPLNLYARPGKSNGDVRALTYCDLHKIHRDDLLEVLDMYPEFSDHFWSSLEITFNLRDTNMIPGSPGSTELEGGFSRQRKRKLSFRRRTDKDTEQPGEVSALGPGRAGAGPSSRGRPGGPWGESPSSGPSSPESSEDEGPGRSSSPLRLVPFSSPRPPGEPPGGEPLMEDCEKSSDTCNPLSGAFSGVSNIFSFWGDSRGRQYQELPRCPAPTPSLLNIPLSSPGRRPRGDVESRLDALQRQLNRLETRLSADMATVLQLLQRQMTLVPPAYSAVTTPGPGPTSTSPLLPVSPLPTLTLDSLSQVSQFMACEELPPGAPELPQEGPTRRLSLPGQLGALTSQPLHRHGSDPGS", "assay": "primary screen, population patch clamp on CHO cells stably expressing hERG", "units": {"hERG current change (%, negative = inhibition) at 10uM": "%"}, "values": [{"compound": "COc1cc2c(cc1OC)C(COc1ccc(F)cc1)N(C(C)=O)CC2", "note": "(stereo not drawn);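 note: peak tail current of the secondary pulse compared with the same well before compound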", "hERG current change (%, negative = inhibition) at 10uM": -11.9}, {"compound": "CCOc1ccccc1CN1CCN(S(=O)(=O)CC)CC1.O=C(O)C(=O)O", "hERG current change (%, negative = inhibition) at 10uM": 10.7}, {"compound": "CCOc1ccc(N2C(=O)/C(=C/c3ccccc3OCC(=O)OC)N(CC(=O)OC)C2=S)cc1", "hERG current change (%, negative = inhibition) at 10uM": -4.43}, {"compound": "CC12CCC(C(=O)Nc3cccc(Cl)c3Cl)([C@H](Br)C1=O)C2(C)C", "note": "(stereo partly drawn)", "hERG current change (%, negative = inhibition) at 10uM": -39.6}, {"compound": "O=C(O)/C=C/C(=O)NNC(=O)c1cccc(Br)c1", "hERG current change (%, negative = inhibition) at 10uM": 3.74}, {"compound": "CN(CC(=O)Nc1cccc(F)c1)C(=O)c1cccc(N2C(=O)CCC2=O)c1", "hERG current change (%, negative = inhibition) at 10uM": 7.61}, {"compound": "CCC(=O)N1CCc2cc(S(=O)(=O)NCCC(=O)NCc3ccccc3OC)ccc21", "hERG current change (%, negative = inhibition) at 10uM": 9.13}, {"compound": "O=C(CSc1nc2cc(Cl)ccc2o1)NCCc1ccccc1", "hERG current change (%, negative = inhibition) at 10uM": 3.36}, {"compound": "CC(C)(C)C1CCC(C(=O)OCC(=O)N2CCOCC2)CC1", "note": "(stereo not drawn)", "hERG current change (%, negative = inhibition) at 10uM": -4.85}, {"compound": "Cc1ccc(S(=O)(=O)N2CCC(C(=O)OCC(=O)NC(C)c3ccc(F)cc3)CC2)cc1C", "note": "(stereo not drawn)", "hERG current change (%, negative = inhibition) at 10uM": -45.2}, {"compound": "Nc1sc(-c2ccccc2)c(Cc2ccccc2)c1C(=O)O", "hERG current change (%, negative = inhibition) at 10uM": -2.59}, {"compound": "CC(=O)Nc1cccc(C(=O)N(CCc2ccccc2)Cc2ccccc2)c1", "hERG current change (%, negative = inhibition) at 10uM": -3.89}, {"compound": "CCc1c(C(=O)NNC(=S)NCC2CCCO2)csc1C", "note": "(stereo not drawn)", "hERG current change (%, negative = inhibition) at 10uM": -7.27}, {"compound": "Cc1noc(C)c1CCC(=O)N1CCCC(N2CCN(c3ccc(F)cc3)CC2)C1", "note": "(stereo not drawn)", "hERG current change (%, negative = inhibition) at 10uM": -53.4}, {"compound": "O=C(Nc1cccnc1)C12CC3CC(CC(C3)C1)C2", "hERG current change (%, negative = inhibition) at 10uM": -7.79}, {"compound": "COc1cccc(N(CC(=O)NC2CCCC2)C(=O)CCCC(=O)Nc2ccccn2)c1", "hERG current change (%, negative = inhibition) at 10uM": -0.819}, {"compound": "Nc1nc(Nc2ccc(Cl)cc2)n[nH]1", "hERG current change (%, negative = inhibition) at 10uM": 3.52}, {"compound": "COc1cc(C(=O)N2C[C@H]3C[C@@H](C2)c2cccc(=O)n2C3)cc(OC)c1OC", "hERG current change (%, negative = inhibition) at 10uM": 8.06}, {"compound": "Cc1ccccc1C(=O)NC(NCc1ccco1)C(Cl)(Cl)Cl", "note": "(stereo not drawn)", "hERG current change (%, negative = inhibition) at 10uM": -8.92}, {"compound": "O=C(Cn1ncc2c([nH]c3ccccc32)c1=O)N1CCOCC1", "hERG current change (%, negative = inhibition) at 10uM": 16.4}, {"compound": "CCn1c(SCC(=O)N2CCN(c3ccccc3)CC2)nc2c([nH]c3ccccc32)c1=O", "hERG current change (%, negative = inhibition) at 10uM": 7.13}, {"compound": "c1ccc2oc(N3CCNCC3)nc2c1", "hERG current change (%, negative = inhibition) at 10uM": -12.9}, {"compound": "CSc1ccc(Cn2nnc(C(=O)NCCc3ccc(Cl)cc3)c2N)cc1", "hERG current change (%, negative = inhibition) at 10uM": 10.7}, {"compound": "COc1ccc(C(=O)Nc2ccc(C(=O)N3CCCC3)cc2)cc1[N+](=O)[O-]", "hERG current change (%, negative = inhibition) at 10uM": -33.2}, {"compound": "O=C(COC(=O)/C=C/c1cccs1)NC(c1ccccc1)c1ccccc1", "hERG current change (%, negative = inhibition) at 10uM": -2.53}, {"compound": "CCc1c(C(C)S(=O)(=O)c2ccc(C)cc2)[nH]c(=O)n1-c1ccc(OC(F)(F)F)cc1", "note": "(stereo not drawn)", "hERG current change (%, negative = inhibition) at 10uM": 12.8}, {"compound": "CCc1nnc(NC(=O)CCC(=O)N2CCN(c3cc(C)ccc3C)CC2)s1", "hERG current change (%, negative = inhibition) at 10uM": 11.9}, {"compound": "COc1cccc(-c2cc(C(=O)Nc3c(C)nn(Cc4ccccc4C)c3C)no2)c1", "hERG current change (%, negative = inhibition) at 10uM": -11.8}, {"compound": "C=CCNc1nc(Nc2cc(Cl)ccc2OC)nc(OC)n1", "hERG current change (%, negative = inhibition) at 10uM": 23.5}, {"compound": "CCCc1cc(=O)oc2cc(OCC(=O)NCCc3c[nH]c4ccc(OC)cc34)ccc12", "hERG current change (%, negative = inhibition) at 10uM": -21.7}, {"compound": "Cc1cccc([C@@H]2[C@@H]3C(=O)N(Cc4ccccc4)C(=O)[C@@H]3[C@]3(Cc4ccccc4)C(=O)N(c4cccc(Cl)c4)C(=O)N23)c1", "hERG current change (%, negative = inhibition) at 10uM": 23.6}, {"compound": "O=C(CCNS(=O)(=O)c1ccc2c(c1)CCC(=O)N2)Nc1ccc(F)c(F)c1", "hERG current change (%, negative = inhibition) at 10uM": -18.9}, {"compound": "O=C(OC(C(=O)NCc1ccc2c(c1)OCO2)c1ccccc1F)c1ccco1", "note": "(stereo not drawn)", "hERG current change (%, negative = inhibition) at 10uM": -31.1}, {"compound": "CCOC(=O)C1CCN(C(=O)c2ccccc2NC(=O)c2ccc(Cl)cc2)CC1", "hERG current change (%, negative = inhibition) at 10uM": -12.6}, {"compound": "Cc1ccc(S(=O)(=O)CC(=O)Nc2nnc(C(C)C)s2)cc1", "hERG current change (%, negative = inhibition) at 10uM": 12.6}, {"compound": "CCOC(=O)CCCNC(=O)CCCNC(=O)C(c1ccccc1)c1ccccc1", "hERG current change (%, negative = inhibition) at 10uM": -8.05}, {"compound": "Cc1ccc(C(C)(C)C)c(OCCCn2ccnc2)c1.O=C(O)C(=O)O", "hERG current change (%, negative = inhibition) at 10uM": -16.6}, {"compound": "Cn1nc(C(=O)NC2CCCCCC2)ccc1=O", "hERG current change (%, negative = inhibition) at 10uM": 1.75}, {"compound": "COC(=O)CSc1ncnc2c1sc1nc(-c3ccco3)c3c(c12)CC(C)(C)OC3", "hERG current change (%, negative = inhibition) at 10uM": 3.01}, {"compound": "Cc1c(NC(=O)Nc2cccc(C(F)(F)F)c2)c(=O)n(-c2ccccc2)n1C", "hERG current change (%, negative = inhibition) at 10uM": -2.96}, {"compound": "C=CCOc1ccc(Cl)cc1CNCCCN1CCOCC1.Cl", "hERG current change (%, negative = inhibition) at 10uM": -18.2}, {"compound": "COc1ccc([C@@H]2CC(=O)c3c(O)cc(O[C@@H]4OC(CO[C@@H]5OC(C)[C@H](O)[C@H](O)C5O)[C@@H](O)[C@@H](O)C4O)cc3O2)cc1O", "note": "(stereo partly drawn)", "hERG current change (%, negative = inhibition) at 10uM": 13.2}, {"compound": "CC(C)n1nnnc1SCC(=O)N1N=C(c2cccs2)CC1c1cccs1", "note": "(stereo not drawn)", "hERG current change (%, negative = inhibition) at 10uM": -46.1}, {"compound": "Cc1[nH]c2ccccc2c1/C=N/NS(=O)(=O)c1ccccc1", "hERG current change (%, negative = inhibition) at 10uM": 15.1}, {"compound": "C/C(=N/NC(=O)c1ccccn1)c1ccncc1", "hERG current change (%, negative = inhibition) at 10uM": 15.3}, {"compound": "COc1cc(OC)c(OC)cc1CN(C)CC1CCCN(CCc2ccccc2F)C1", "note": "(stereo not drawn)", "hERG current change (%, negative = inhibition) at 10uM": -2.33}, {"compound": "Cc1cccc(N2CCN(Cc3nc(-c4ccc(F)cc4F)oc3C)CC2)n1", "hERG current change (%, negative = inhibition) at 10uM": -41.3}, {"compound": "CN(C)CC1CSCCC1(O)c1cccc(Cl)c1.Cl", "note": "(stereo not drawn)", "hERG current change (%, negative = inhibition) at 10uM": 7.05}, {"compound": "CC(=O)CCc1ccc(OCCCCN2CCC(Cc3ccccc3)CC2)cc1.O=C(O)C(=O)O", "hERG current change (%, negative = inhibition) at 10uM": -79.5}, {"compound": "N#Cc1c(C(F)(F)F)cc(-c2cccs2)nc1N1CCCCC1", "hERG current change (%, negative = inhibition) at 10uM": 17.3}, {"compound": "COc1ccc(NC(=O)c2cc([N+](=O)[O-])ccc2O)cc1", "hERG current change (%, negative = inhibition) at 10uM": -57.6}, {"compound": "CC(NC(N)=O)C(=O)Nc1ccc(Cl)c(S(=O)(=O)Nc2ccc(Br)cc2)c1", "note": "(stereo not drawn)", "hERG current change (%, negative = inhibition) at 10uM": 23.2}, {"compound": "CC1CCCC(C)N1CC(O)COCc1ccccc1.Cl", "note": "(stereo not drawn)", "hERG current change (%, negative = inhibition) at 10uM": 5.08}, {"compound": "CCCN1C(=O)/C(=C/c2ccc(N3CCCC3)c(C)c2)NC1=S", "hERG current change (%, negative = inhibition) at 10uM": -7.93}]}]}
